# Experimental data reported in the supplement of paper PMC11417369.
# Some of the results follow.
# System: PfSIP2 AP2 domain 1 (GST-tagged)
# Test: gcPBM binding intensity (ln(normalized median fluorescence intensity)); higher = stronger DNA binding
# Method in brief: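 GST-tagged P. falciparum DNA-binding domains, expressed in E. coli (about 25 μg on average), were applied for 1 h to an Agilent 4 × 180k array of primer-extended double-stranded 36-bp intergenic genomic probes plus negative controls. The binding buffer was 1× PBS with 1% milk, 0.2 mg/ml BSA, 0.5% salmon testes DNA and 0.03% Triton X-100. Bound protein was detected with Alexa488 anti-GST antibody and scanned at 488 nm. Binding intensity is the highest Masliner-normalised natural-log median intensity across replicate spots of either probe orientation.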
row,Sequence,gcPBM binding intensity (ln)
1,GTATGAAATTATAATAGTACATATAAATAAAAAAAA [XGTACX_site8955],6.89
2,TATATATAATATATATATATGGAAATTCTTTTAAAT [XGTACX_negctrl_site50],7.64
3,TGTATTATATGTAAATGTACATTTAATATTTTATAT [XGTACX_site4461],7.13
4,ATATAAGGATAACCTAGTACATATTATATGAAACAA [XGTACX_site8459],6.93
5,TACGGTAAATAGTGTTGTACGATACAATTGTTTTCT [XGTACX_site8118],6.66
6,AAGGGGAAAAAAAAAAGTACACAAACATAGGATAAT [XGTACX_site377],7.43
7,CAATTAAAATGCAACGGTACACATAAAAAAAATAAA [XGTACX_site6216],6.97
8,AAAATAAATAAATAAATATATATATATATATATATA [TGCATGCA_negctrl_site558],9.76
9,CCACAAGTATATAGTAGTACAATTTTTTTCTCTTTA [XGTACX_site4403],6.9
10,TTTTTTTTATTTTGTTGTACGCTTATTTGTATATAT [XGTACX_site7325],7.54
11,TTTATGTGTTATAAATGTACATAATATAATTCGTAT [XGTACX_site3845],7.01
12,TTATCTATAAATACGAGTACGCAAAATCATATAATA [XGTACX_site2447],7.03
13,TTTTTATAAAATTTTATGAGCTCGGAAAAAATAAAC [GTGCAC_negctrl_site637],7.66
14,TTTTAATATTAAGATGTCTTTTACGTTTATTTTGTA [CACACA_negctrl_site765],6.92
15,ATTTACGCGCTTATTACACACACATACAAATAAGGA [CACACA_site9157],7.33
16,TAATTATTTGCCCTTACTCTGAACATTCGGAATTTA [CACACA_negctrl_site1278],6.91
17,ATCTGCATATATATATGTACATATTTTAGAATGCAC [XGTACX_site708],9.36
18,TTCTTTTTAAATTACACACACATATAAATATGTATA [CACACA_site7618],7.37
19,TAATAAATAATGGTTACACACAAAATATAAAACTTA [CACACA_site3544],6.86
20,AATTATAAATCTTGCACACAAAAAAAATAATAAAAA [CACACA_site2434],7.15
21,TAAACACATATATAGACATGCAACTAGTTTTTATAA [TGCATGCA_site474],6.96
22,AAATCTTTGTGTGGATGTACTTTTATAAAAAAGAAT [XGTACX_site3830],7.11
23,TCTGTTCTTTTTTAATGTACAAGAAATATAAAATTC [XGTACX_site3600],7.19

row,Sequence,gcPBM binding intensity (ln)
1,AATTTTTAGTATATAACATAAAATAAAATAAAATAA [GTGCAC_negctrl_site696],7.24
2,TTATTTTTTTTTTTTTGTACACAATTTGACACATTA [XGTACX_site7983],7.33
3,TTTATTTAATTATGTTGTACATGTAGGATTTATTTT [XGTACX_site7078],6.98
4,AAAAAGGAAATAATAACACACATTAATAATTATAAA [CACACA_site3401],6.67
5,TAAAAAGTTATATTCACACACATACACATATAAATA [CACACA_site6398],6.88
6,GTTAAAAAAAGGAGAGATCTCACACAAATATATATA [GTGCAC_negctrl_site117],7.28
7,AATATATATGAAAAAAGTACTCAAGGAATAAAAAAA [XGTACX_site7720],6.68
8,ATGATAAATATAAGTTGTACATATATCTATGTGCAT [XGTACX_site6010],7.02
9,CATAAATACTATATATGTACGTAATTTTTAAAACAT [XGTACX_site7710],7.3
10,CATTTAATAATAACAAGTACACAAAGATGTATAACA [XGTACX_site8315],7.28
11,GGGTGCCAAATTAGCACACACATATATACCTGAATT [CACACA_site5551],8.5
12,TTACAAATAATTTGTTGTACGCTTTTTTTCTTTTTT [XGTACX_site7199],7.82
13,TATATATATATATATGTGCGCATTACTTTAAGAATA,9.3
14,TTTTTTTTTATTTGTTGTACGAGGTTTTAAAATTTT [XGTACX_site106],7.15
15,ACAATATCTAGATACACACACATATCTCTCAATCTA [CACACA_site656],7.04
16,TATAATATTCTATATGCATGTACACCATTCTTTATT [TGCATGCA_site688],7.23
17,TATTGTTATCTTTTATGTACTTAAAAAAATAAATTT [XGTACX_site4233],7.24
18,AAAAAGGTTATTGGTACACACATATGTATATAAATA [CACACA_site6402],7.07
19,TAATAAAACATATATACACACATTATATATACATAT [CACACA_site8495],6.98
20,GTAGGCATTAAAAAATGTACAAAATATTATGAATTG [XGTACX_site1615],6.85
21,TATAATATATTCATGTGTACATATATTTCGAACATA [XGTACX_site1754],7.23
22,ATAAATATTGCGTGCACACACATAATATTTATATAT [CACACA_site7136],8.7
23,CGAAAAATATGTATGAGTACTTATATTTAAACTATA [XGTACX_site1911],6.86

row,Sequence,gcPBM binding intensity (ln)
1,CATTCCTATTATTATACACACAAATTAAGAATTCAA [CACACA_site787],6.98
2,ATGTCATAAAAACATATACACACTTGAAATATAAAA [CACACA_site2329],6.94
3,ATTTTTTTGTTAATTTGTACATAAAATTTTATTTTA [XGTACX_site7007],7.25
4,ATATTTATTTTATAAAGTACTAAAAAATATATTATA [XGTACX_site8522],6.9
5,AAAAAAAAAAAAAAAACACACAAACGCTTTTTTTTT [CACACA_site4545],7.54
6,GGATAAGAGGCATATACACACAATTTAAAAAAATAA [CACACA_site4657],7.15
7,TATATTTATACTTATACACACATTATTGAATTAACC [CACACA_site934],7.18
8,ATTATTTATATTTGGAGTACTTATAATATTTTTATA [XGTACX_site1289],7.24
9,AGTGTAAGCTAAGTGGTGCGTTGAATAAGGTTTTTT [GTGCAC_site9951],8.75
10,TATAGGTATTTGTATACACACAAATGTATATATCTA [CACACA_site6713],6.81
11,AAAATATTTATTCCTAGTACTTACCATTATATATAT [XGTACX_site363],7.7
12,AAAAAAAAATGAAAAGAAAAAAAAAGAAAAAAGGGA [CACACA_negctrl_site287],6.9
13,CTTTATATATTTTATTGTACTTAAAAAAAAAAAAAA [XGTACX_site2134],7.39
14,AAAAAATATGCATATACACACATATGTATAAATAAC [CACACA_site7090],7.17
15,AAAAAAAAAAAAAACACACACACACGCATACACATA [CACACA_site7364],7.61
16,AAGAGGATACACAATGTGCACTTTTTTTTTTTTTTT [GTGCAC_site9415],10.5
17,TATACAGATATATATACACACATATATATAAATACA [CACACA_site4383],7.09
18,ATAAATAAAACAAATAGTACAATATAAAAAAAAAGG [XGTACX_site87],7.36
19,TATATATATAATATATGTACTCATATTAAGAGATAC [XGTACX_site1354],8.28
20,AATGAGCTTTTTAAAAGTACTAAATATAAATAAATA [XGTACX_site3632],6.74
21,TATATATGTATATTTTGTACGTATTTATTTACATGA [XGTACX_site4584],6.75
22,AATAGTTGCTAAAGGTGTACAATACATTTATTAGAA [XGTACX_site2773],7.19
23,TATTACTTAAATAAAAGTACATATAACATTTTAGTT [XGTACX_site196],6.95

row,Sequence,gcPBM binding intensity (ln)
1,TCTTTGGTATTTACATGTACATATTCTTAAAAACAT [XGTACX_site3124],7.4
2,TGTATAGTCTAAAGTTGTACAAAAAAAAAAAAAAAA [XGTACX_site5764],7.05
3,GAAAATAAAATATTAGTGCATTATTTGATCAATAAT,8.23
4,GTTAATATTTTTGGGGGTACTTAAAAAAAAAAAAAA [XGTACX_site1477],7.78
5,AATTTAAAAAATAATTGTACAAAAAAAAAAAATCAG [XGTACX_site4576],7.27
6,TTACATACAATTGGTGTGCACATATATATATATATA,9.93
7,CAAAAGGATAGGCACACACACACACCGATATATATA [CACACA_site8685],7.38
8,GAATATTAATTCAAGTGTACAAATATATATATAATT [XGTACX_site5103],7.13
9,TAATAAGGAATTTATAGTACATATTCATATGTTTTA [XGTACX_site2331],6.66
10,ATAATATAAATATACACACACACATATATATATATA [CACACA_site2905],9.19
11,ATAAAAATTTATATATGTACTTAATTTTTAATTTTT [XGTACX_site7482],6.96
12,TATGTTTTTGAATGAGTGCATTAAAATAAAACATTT,8.97
13,TTCTTGTATATTCATAGTACATATAATGTCGTGTTA [XGTACX_site8991],7.13
14,AAATAAAGAAATGCAAGTACATACTAAACTAATCCA [XGTACX_site1209],6.72
15,TCTTAAATTATGATAAAATATAATAAATAAATAAAT [CACACA_negctrl_site1520],6.71
16,ATATATATTATAATCTGTACATAAATATATAATAAA [XGTACX_site5425],7.29
17,TTGTTTTATACATAGTGTACATATAAAAATTTTTTT [XGTACX_site7549],7.28
18,ATTTTCCCTAGAATATGTACACATAGTAAATATTAT [XGTACX_site7499],6.93
19,ATATATAAATATGAAACACACATTCTATTTAATTCG [CACACA_site1450],6.89
20,CAGATAAATAAACACACACACACATATATATATATA [CACACA_site9311],9.68
